Assay results as given in the supplement of paper PMC12340641.
The full ranking holds about 1,000 compounds; the median of “relative growth recovery (pomalidomide 10 uM = 100%, DMSO = 0%)” is about -1.6, and the highest 2% start at about 21. The list shows a part of the results.

test system: HEK293FT dCK*-IKZF1; assay: relative growth recovery (pomalidomide 10 uM = 100%, DMSO = 0%); higher = more growth rescue (IKZF1 fusion degradation); conditions: compound concentration: 5 uM; AraC concentration: 0.3 uM; overnight pretreatment + 4 days AraC
Protocol: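 Growth recovery screen of the molecular-glue-like (Specs) library. HEK293FT cells expressing a dCK*-IKZF1 fusion (primary) or dCK* alone (counter) were pretreated overnight with compound at 5 uM, then given 0.3 uM AraC for 4 days. Hoechst nuclei were counted by imaging. Primary: normalised to pomalidomide (100%) and DMSO (0%), mean of 2 replicates. Counter: normalised to no-AraC (100%) and AraC+DMSO (0%), single replicate.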

| Compound | relative growth recovery [%] |
| --- | --- |
| Cc1cc(NS(=O)(=O)c2ccc(NC(=O)CCCOc3ccc(Cl)cc3)cc2)nc(C)n1 | -1.54 |
| Cc1cc(C)c2[nH]c3nc(SCC(=O)Nc4ccc(Cl)c([N+](=O)[O-])c4)nnc3c2c1 | -13 |
| O=C(Nc1ccc(S(=O)(=O)Nc2ncccn2)cc1)c1ccco1 | -3.85 |
| CC(=O)Oc1ccc(N2C(=O)c3ccc(Oc4cccc(N)c4)cc3C2=O)cc1 | -2.16 |
| COc1ccc(OCC(=O)Nc2ccc(S(=O)(=O)Nc3nc(C)cc(C)n3)cc2)cc1 | 2.2 |
| CC(C)C(=O)N1CCCC1c1csc(Nc2ccccn2)n1 (configuration not stated) | 1.14 |
| Cc1nc(Nc2cccc(C3CCCN3C(=O)COc3ccc(F)cc3F)n2)sc1C (configuration not stated) | 1.31 |
| COCC(=O)N1CCOC(c2cccc(Nc3nc(C)cs3)n2)C1 (configuration not stated) | 2.9 |
| O=[N+]([O-])c1ccc(S(=O)(=O)Nc2ccccn2)cc1 | 3.84 |
| CC(=O)N1CCC(c2csc(Nc3ncccc3C)n2)CC1 | 2.94 |
| O=C(CSc1nnc2c(n1)[nH]c1ccc(F)cc12)Nc1ccc(F)cc1 | 1.55 |
| Cc1ccc(OCC(=O)Nc2ccc(S(=O)(=O)Nc3ccccn3)cc2)cc1 | -2.1 |
| CC(C)c1ccc(OCC(=O)Nc2ccc(S(=O)(=O)Nc3ccccn3)cc2)cc1 | 2.78 |
| CN(C)CC1(c2cccc(Nc3ncc(-c4ccccc4)s3)n2)CCN(C(=O)C(C)(C)N)CC1 | -17.3 |
| Cc1ccnc(NS(=O)(=O)c2ccc(NC(=O)c3ccccc3C)cc2)n1 | -1.84 |
| Cc1cnc(Nc2cccc(C3CCN(CC(=O)Nc4ccccc4F)CC3)n2)s1 | -9.93 |
| Cc1cc(C)nc(NS(=O)(=O)c2ccc(Nc3nc(-c4ccc(Cl)cc4)cs3)cc2)n1 | -0.855 |
| O=C(C1CCCCC1)N1CCC(Cc2cccc(Nc3nccs3)n2)CC1 | 4.47 |
| Cn1nccc1/C=C/C(=O)N1CCC(c2cc3ccccc3c(Nc3nccs3)n2)CC1 | -16.9 |
| COc1ccc(N2CC(C(=O)Nc3ccc(S(=O)(=O)Nc4nc(C)cc(C)n4)cc3)CC2=O)cc1 (configuration not stated) | -2.15 |
| CCC(Oc1ccccc1)C(=O)Nc1ccc(S(=O)(=O)Nc2ncccn2)cc1 (configuration not stated) | 78.9 |
| Cc1ccc(C)c2c1[nH]c1nc(SCC(=O)Nc3ccc(Cl)c(C(F)(F)F)c3)nnc12 | -3.91 |
| COc1ccccc1C(=O)Nc1ccc(S(=O)(=O)Nc2ncccn2)cc1 | 0.915 |
| O=C(COc1ccc(F)cc1)N1CCC(c2cccc(Nc3nccs3)n2)CC1 | 3.9 |
| Cc1csc(Nc2cccc(C3CCN(C(=O)c4cccnc4)CC3)n2)n1 | 8.94 |

| Compound | relative growth recovery [%] |
| --- | --- |
| Cc1ccccc1OCCCC(=O)Nc1ccc(S(=O)(=O)Nc2ncccn2)cc1 | -6 |
| Cc1cc(C)nc(NS(=O)(=O)c2ccc(NC(=S)NC(=O)/C=C/c3ccccc3)cc2)n1 | -1.71 |
| COc1ccc2[nH]c3nc(SCC(=O)Nc4ccc(F)cc4)nnc3c2c1 | -15.4 |
| COc1cc(NS(=O)(=O)c2ccc(NC(=O)CCl)cc2)nc(OC)n1 | -5.68 |
| Cc1csc(Nc2cccc(C3CCCN3C(=O)c3cn4cc(Cl)ccc4n3)n2)n1 (configuration not stated) | 11.4 |
| CCN(CC)C(=O)CN1CCOC(c2cccc(Nc3nc(C)c(C)s3)n2)C1 (configuration not stated) | 8.94 |
| Cc1csc(Nc2cccc(C3CCCN3C(=O)CCCc3ccc(F)cc3)n2)n1 (configuration not stated) | 0.885 |
| Cc1cc(C)nc(NS(=O)(=O)c2ccc(NC(=S)NC(=O)c3ccc(F)c(F)c3)cc2)n1 | -2.13 |
| Cc1ccc(Oc2ccc(N3C(=O)c4ccc(Oc5ccc(N)cc5)cc4C3=O)cc2)cc1C | -8.53 |
| COCc1nc2ccccc2n1CC(=O)N1CCOC(c2cccc(Nc3ncc(C)s3)n2)C1 (configuration not stated) | -5.98 |
| Cn1nccc1/C=C/C(=O)N1CCCC(c2csc(Nc3ccccn3)n2)C1 (configuration not stated) | 40.9 |
| CCOc1ccccc1C(=O)Nc1ccc(S(=O)(=O)Nc2ccccn2)cc1 | 2.5 |
| Cc1cc(NS(=O)(=O)c2ccc(NC(=O)C(F)(F)F)cc2)nc(C)n1 | -1.77 |
| O=C(O)CCCNc1cccc2c1C(=O)N(C1CCC(=O)NC1=O)C2=O (configuration not stated) | 3.32 |
| Cc1csc(Nc2cccc(C3CCN(C(=O)CO)CC3)n2)n1 | 3.58 |
| Cc1cc(C)nc(NS(=O)(=O)c2ccc(NC(=O)c3ccc(F)cc3)cc2)n1 | -0.96 |
| Cc1cnc(Nc2cccc(C3CN(C(=O)C4(c5ccccc5)CC4)CCO3)n2)s1 (configuration not stated) | -8.16 |
| CC(=O)N1CCCC(c2csc(Nc3ccccn3)n2)C1 (configuration not stated) | -1.67 |
| Cc1csc(Nc2cccc(C3CCCN3CC(N)=O)n2)n1 (configuration not stated) | 0.325 |
| CC(Oc1ccc(F)cc1)C(=O)Nc1ccc(S(=O)(=O)Nc2ncccn2)cc1 (configuration not stated) | 5.47 |
| Cc1cc(C)nc(NS(=O)(=O)c2ccc(NC(=O)C(C)Oc3ccccc3F)cc2)n1 (configuration not stated) | 4.51 |
| COc1cc(NS(=O)(=O)c2ccc(NC(=O)c3ccc(Br)o3)cc2)nc(OC)n1 | 2.29 |
| Cc1cnc(Nc2cccc(C3CN(C(=O)CCc4ccc(N(C)C)cc4)CCO3)n2)s1 (configuration not stated) | 1.53 |
| Cc1ccc(/C=C/C(=O)Nc2ccc(S(=O)(=O)Nc3nc(C)cc(C)n3)cc2)cc1 | -0.185 |
| CC(C)CC(=O)Nc1ccc(S(=O)(=O)Nc2ncccn2)cc1 | 4.01 |

| Compound | relative growth recovery [%] |
| --- | --- |
| Cc1cnc(Nc2cccc(C3CN(C(=O)c4ccccn4)CCO3)n2)s1 (configuration not stated) | -0.11 |
| CCCc1cnc(Nc2cccc(C3CCCN(C(=O)C4CCCCC4)C3)n2)s1 (configuration not stated) | -2.83 |
| COc1ccc(NS(=O)(=O)c2ccc(NC(=O)c3ccccc3C(=O)O)cc2)nn1 | 0.695 |
| O=C(CSc1nnc2c(n1)[nH]c1ccccc12)Nc1cccc(Cl)c1 | -17.9 |
| Cc1cc(C)nc(NS(=O)(=O)c2ccc(N3C(=O)c4ccccc4C3=O)cc2)n1 | 1.18 |
| CC(=O)Nc1ccc(S(=O)(=O)Nc2cc(C)ccn2)cc1 | 1.54 |
| CCCCc1cnc(Nc2cccc(C3CCN(C(=O)[C@@H]4CCCN4C(=O)OC(C)(C)C)CC3)n2)s1 | -2.56 |
| O=C(O)CCCCCNc1cccc2c1C(=O)N(C1CCC(=O)NC1=O)C2=O (configuration not stated) | 11.1 |
| Cc1cc(C)nc(NS(=O)(=O)c2ccc(NC(=O)c3ncoc3-c3cccs3)cc2)n1 | 3.04 |
| CCC(=O)N1CCCC1c1csc(Nc2ccccn2)n1 (configuration not stated) | -6.07 |
| COc1ccc(/C=C/C(=O)Nc2ccc(S(=O)(=O)Nc3cc(C)nc(C)n3)cc2)cc1OC | -1.51 |
| Cc1cnc(Nc2cccc(C3CCN(C(=O)C45CC6CC(CC(C6)C4)C5)CC3)n2)s1 | 1.16 |
| CN(CC(=O)N1CCOC(c2cccc(Nc3nccs3)n2)C1)Cc1ccccc1F (configuration not stated) | 3.1 |
| Cc1ccc(CCC(=O)Nc2ccc(S(=O)(=O)Nc3nc(C)cc(C)n3)cc2)cc1 | -1.52 |
| Cc1csc(Nc2cccc(C3CCCN3C(=O)COc3c(C)cccc3C)n2)n1 (configuration not stated) | -1.58 |
| Cc1csc(Nc2cccc(CC3CCN(CC(=O)N(C)C)CC3)n2)n1 | 4.04 |
| Cc1onc(-c2ccccc2)c1C(=O)Nc1ccc(S(=O)(=O)Nc2ncccn2)cc1 | -15.9 |
| COc1ccc(OCCCC(=O)Nc2ccc(S(=O)(=O)Nc3ncccn3)cc2)cc1 | -3.56 |
| O=C(CN1C(=O)C2CCCCC2C1=O)Nc1ccc(S(=O)(=O)Nc2ncccn2)cc1 (configuration not stated) | -0.23 |
| Cc1csc(Nc2cccc(C3CCN(C(=O)C4CC=CCC4)CC3)n2)n1 (configuration not stated) | -3.74 |
| Cc1csc(Nc2cccc(C3CCN(C(=O)c4nccc5ccccc45)CC3)n2)n1 | -0.34 |
| COc1ccc(NC(=O)CN2CCC(c3cccc(Nc4nc(C)cs4)n3)CC2)cc1 | 32.9 |
| NC(=O)CN1CCC(Cc2cccc(Nc3nccs3)n2)CC1 | -17.2 |
| Cc1ccnc(NS(=O)(=O)c2ccc(NC(=O)c3ccccc3F)cc2)n1 | 1.59 |
| COc1ccc(C(=O)Nc2ccc(S(=O)(=O)Nc3cc(OC)nc(OC)n3)cc2)c(OC)c1 | 3.94 |

| Compound | relative growth recovery [%] |
| --- | --- |
| CC(=O)Nc1ccc(C(=O)Nc2ccc(S(=O)(=O)Nc3ncccn3)cc2)cc1 | 1.06 |
| O=C(/C=C/c1ccco1)N1CCCC(c2csc(Nc3ccccn3)n2)C1 (configuration not stated) | 18.9 |
| COc1cc(OC)cc(C(=O)Nc2ccc(S(=O)(=O)Nc3ccccn3)cc2)c1 | -2.01 |
| O=C(Nc1ccc(S(=O)(=O)Nc2ncccn2)cc1)C(F)(F)F | 12.6 |
| CCCc1cnc(Nc2cccc(C3CCN(C(=O)C4CCCCN4CCO)CC3)n2)s1 (configuration not stated) | -3.4 |
| Cc1ccc(Cl)cc1NC(=O)CSc1nnc2c(n1)[nH]c1ccc(F)cc12 | -5.29 |
| Cc1nc2ccccn2c1CC(=O)N1CCOC(c2cccc(Nc3nccs3)n2)C1 (configuration not stated) | 10.9 |
| COc1cc(OC)cc(C(=O)Nc2ccc(S(=O)(=O)Nc3nc(C)cc(C)n3)cc2)c1 | -2.46 |
| CCCC(=O)Nc1ccc(S(=O)(=O)Nc2cc(OC)nc(OC)n2)cc1 | -4.17 |
| Cc1cc(Cl)ccc1OCC(=O)Nc1ccc(S(=O)(=O)Nc2ncccn2)cc1 | -2.19 |
| CCc1ccc(OCC(=O)Nc2ccc(S(=O)(=O)Nc3nc(C)cc(C)n3)cc2)cc1 | 4.75 |
| CCCc1nc2ccccc2n1CC(=O)N1CCOC(c2cccc(Nc3ncc(C)s3)n2)C1 (configuration not stated) | -10.1 |
| Cc1ccn(CCC(=O)N2CCOC(c3cccc(Nc4ncc(C)s4)n3)C2)n1 (configuration not stated) | 2.46 |
| Cc1cccc(C)c1OCC(=O)Nc1ccc(S(=O)(=O)Nc2ccccn2)cc1 | -10.1 |
| CC(=O)N1CCC(c2cccc(Nc3ncc(C)s3)n2)CC1 | -19 |
| CCc1ccccc1OCC(=O)Nc1ccc(S(=O)(=O)Nc2nc(C)cc(C)n2)cc1 | -4.88 |
| Nc1ccc(S(=O)(=O)Nc2nccc(/C=C/c3cccc(Br)c3)n2)cc1 | -3.73 |
| COc1ccccc1C(=O)Nc1ccc(S(=O)(=O)Nc2nccc(C)n2)cc1 | -0.71 |
| COc1ccc(NS(=O)(=O)c2ccc(NC(=S)NC(=O)/C=C/c3ccccc3)cc2)nn1 | -0.54 |
| Cc1cnc(Nc2cccc(C3CN(C(=O)CN(C(=O)OC(C)(C)C)c4ccccc4)CCO3)n2)s1 (configuration not stated) | -8.73 |
| CC(=O)Nc1cccc(Oc2ccc3c(c2)C(=O)N(c2ccc(OC(C)=O)cc2)C3=O)c1 | -2.76 |
| COc1ccc(-c2csc(Nc3ccc(S(=O)(=O)Nc4cc(OC)nc(OC)n4)cc3)n2)cc1 | -2.94 |
